Some of the results follow.
tested on: PfSIP2 AP2 domain 1 (GST-tagged); test: gcPBM binding intensity (ln(normalized median fluorescence intensity)); higher = stronger DNA binding
In short: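 The highest Masliner-normalised natural-log median intensity across replicate spots of either probe orientation is reported as binding intensity. GST-tagged P. falciparum DNA-binding domains expressed in E. coli were applied for 1 h to an Agilent 4 × 180k array of primer-extended double-stranded 36-bp intergenic genomic probes plus negative controls, and bound protein was detected with Alexa488 anti-GST antibody and scanned at 488 nm.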

| Sequence | gcPBM binding intensity (ln) |
| --- | --- |
| ATTGTATCTGTATATGCACACAATATCTGTACTTCT [CACACA_site5445] | 7.04 |
| AAATAAAGCACACCGACACACACATATATATATATA [CACACA_site8256] | 9.21 |
| TATATATATGTATACACACATACAAATATGTAAAAA [CACACA_site3720] | 7.17 |
| CGAAATCATATGTACACACACATATATATATATATA [CACACA_site2151] | 9.32 |
| TTTCAATACTGAAACTGTACTTGTTTTACTTCTATT [XGTACX_site5924] | 6.71 |
| TTATAATTTTTTTTTGCATGTGGGTTTTTTTTTGTT [TGCATGCA_site968] | 6.83 |
| ATAAAGAAACATATATGTACTTATATATATATATAT [XGTACX_site5625] | 9.14 |
| TATTATTTATTATATGCACACATCGAACTATTATTT [CACACA_site2544] | 8 |
| TATTCGAAAGAATAGGCATGCAAACATATCTTATTA [TGCATGCA_site147] | 6.57 |
| TTCTATATTATATATGCATGTGTTATTCTTATTTTC [TGCATGCA_site92] | 7.15 |
| AAACATATAAATCACGGTACACATTATTGAAAGTGT [XGTACX_site2966] | 7.06 |
| ATATAATATTAGTGCACACACAAAAATGTACTAAAC [CACACA_site632] | 10.9 |
| ATATATATTATATGCACACTTATATTTCATTAGATT [CACACA_site2599] | 8.8 |
| TTTTATTAATATTGCATGCACACTATATAATAATTG [CACACA_site1049] | 8.63 |
| CGGAAAAATTAAAGCACACAAAAAAAAATAAAAAAA [CACACA_site1133] | 6.94 |
| AATATTTCTTTAATTTGTACATATAAGGGAAAATAA [XGTACX_site6221] | 7.07 |
| TTTTTATTATTTTAAAGTACTCTTTAGTAATTCCCT [XGTACX_site5863] | 6.78 |
| CACAGATAAATTAACACACACACACCGATATATATA [CACACA_site6049] | 7.29 |
| AAAAAACATACATACACACACATAAATATTTATATT [CACACA_site7300] | 7.01 |

| Sequence | gcPBM binding intensity (ln) |
| --- | --- |
| ATATATATTTTAATAACACACATATATTATATTATA [CACACA_site4387] | 7.06 |
| CTTAGGTGTTCATAGAGTACAAATAAAAAAATAAGA [XGTACX_site2294] | 7.22 |
| TCATTCTAAATATAAACACACATAAATAAATACATT [CACACA_site5788] | 6.86 |
| GGTGGTGGTGGGTGGGTGCTTCTATTATTATATTAT [GTGCAC_site9391] | 9.59 |
| GATGTTTCTATTTTAGTGCATTTTAAATAAATAAAT | 9.4 |
| ACGTTACATACATATACACACACATATATATATATA [CACACA_site8203] | 9.05 |
| TATATATATTATTATGCATGTAATAAAACAAATAAT [TGCATGCA_site625] | 7.34 |
| ATTTCTTCTTTTTTTGTGAAACTGGAATATATATAT [XGTACX_negctrl_site527] | 8.21 |
| TATTAAAAAATTATATGTACACATTTGTTATATACA [XGTACX_site2232] | 7.28 |
| ATAAAAAAATAAATAACACACAAAATTACACGAAAA [CACACA_site3620] | 7.06 |
| AATTAAAGGAATTACAACTTTGCAAGCGCAACATAA [CACACA_negctrl_site1411] | 6.81 |
| TTCTTTATATATGTTCGTACATATTATTATAATACA [XGTACX_site1549] | 7.25 |
| TATGTCCATATTTCCACACACATATTATTTTTATAT [CACACA_site3798] | 7.26 |
| AAATATATTTTTAATAGTACAATATGAAAATTTCAT [XGTACX_site2562] | 6.98 |
| AAAAAAAAGGAAATAACACACATGTATATATTTATA [CACACA_site1606] | 6.8 |
| CACCATGTTAACAATACATGCATCACTATATAAATG [TGCATGCA_site36] | 7.04 |
| GTACACATATATATATATATATATATATATATATAT [CACACA_negctrl_site800] | 9.8 |
| TTTTTTTTTTTTTTTTGTACTCATACATACTATTAT [XGTACX_site989] | 7.23 |
| TAATTTTCATGTTCATGTACTTAAATATAAGGTAAA [XGTACX_site3284] | 7.01 |

| Sequence | gcPBM binding intensity (ln) |
| --- | --- |
| TGCCTTATTAAAAGAATTACACATATTTAATCGAAA [GTGCAC_negctrl_site153] | 6.98 |
| ATTCATAACAAAAAAAGTACTCAAAATAATAATAAA [XGTACX_site6079] | 7.19 |
| ATTCAATAAACGTATTGTACAAAAGAACGATATATT [XGTACX_site2533] | 7.05 |
| TATTGGATCACACAAAAATGTATAAATAAATAGAAA [TGCATGCA_negctrl_site490] | 6.75 |
| ATCATAACTTGATACGCACACGTTATATAAATAAAA [CACACA_site4955] | 7.12 |
| TGAGAATAAAAAAAAGGGATTATTAGATTTCTCCTT [TGCATGCA_negctrl_site326] | 6.26 |
| AAGACAAATTGTGACACACACAAAAAAAAAAAAAAA [CACACA_site3727] | 6.95 |
| AAAAAAATAAGGTGCACACAAAAAAAAAAAAAAAAA [CACACA_site812] | 12.4 |
| GATTCATTTCGTAATACACACAACAAATATTTCAAA [CACACA_site1772] | 7.31 |
| AATGTAAATAAGTGTACACATATATAATACATACAT [CACACA_site4938] | 7.47 |
| TACCTTATATTATATACACACATATAATATAATATA [CACACA_site1328] | 7.19 |
| GTCTCCTTTATTTTTGGTACAGATAAGATAAAAGGA [XGTACX_site1591] | 7.32 |
| GTGTTCATATATAGCCGTACATATGTCTTATGAACG [XGTACX_site5647] | 7.34 |
| ATTATCAAAAAAAAAAAAAAAAAAAAAAAAAAAAAA [CACACA_negctrl_site1118] | 7.07 |
| TATAACATTATTTTGTGTACACATTCGGTTATATTA [XGTACX_site6310] | 7.43 |
| AATCAAAATATATCTACACACATTTAAGTAACCCAT [CACACA_site5846] | 6.94 |
| ATATAGATCTATAATACACACTTATGAAATGTCTAA [CACACA_site6946] | 6.72 |
| TTGTTTCCGATGAAAGAAAGGAAATTATAATATATC [GTGCAC_negctrl_site516] | 6.91 |

Reference: the supplement of paper PMC11417369
